Measured values published in the supplement of paper PMC6135742.
Where a name gives a salt, the structure may show the parent alone. ± gives the standard deviation of the averaged measurements. In all, about 2,600 compounds were measured (“total cell number (DAPI+ nuclei) relative to DMSO vehicle control”: median about -1.4, lowest 2% from about -23 on). The list shows a part of the results.

system: jimpy (Plp1 jimpy) mouse iPSC-derived oligodendrocyte progenitor cells; assay: total cell number (DAPI+ nuclei) relative to DMSO vehicle control (SDs above negative control mean); higher = more surviving cells; settings: 10 µM; 3 days

Structure (SMILES) | total cell number
O=C1CC2(CCCC2)CC(=O)N1CCCCN1CCN(c2ncccn2)CC1 [Buspirone HCl] | -0.992
O=C1CC2(CCCC2)CC(=O)N1CCCCN1CCN(c2ncccn2)CC1 [Buspirone hydrochloride] | -1.83
CC[C@H]1OC(=O)[C@H](C)[C@@H](O[C@H]2C[C@@](C)(OC)[C@@H](O)[C@H](C)O2)[C@H](C)[C@@H](O[C@@H]2O[C@H](C)C[C@H](N(C)C)[C@H]2O)[C@](C)(O)C[C@@H](C)[C@@H]2N[C@@H](COCCOC)O[C@H]([C@H]2C)[C@]1(C)O [Dirithromycin] | -1.67
COc1ccc(S(=O)(=O)N(C(C)=O)c2ccccc2/C=C/c2cc[n+]([O-])cc2)cc1 | -4.22
CCn1ccnc1CC1COc2ccccc2O1 (stereo not drawn) [Imiloxan hydrochloride] | -1.4
COc1cc2nccc(Oc3ccc(NC(=O)C4(C(=O)Nc5ccc(F)cc5)CC4)cc3)c2cc1OC | -20
CN1CCN(c2nc3cc(C(F)(F)F)ccc3n3cccc23)CC1 | -5.92
O=C(O)/C=C/c1ccc(Cn2ccnc2)cc1 [Ozagrel] | -1.42
O=C(O)/C=C/c1ccc(Cn2ccnc2)cc1 [Ozagrel HCl] | -1.15
CCCc1nc(C)c2c(=O)nc(-c3cc(S(=O)(=O)N4CCN(CC)CC4)ccc3OCC)[nH]n12 [Vardenafil HCl Trihydrate] | 1.13
CNC(=O)c1cc(COc2nnc(Nc3ccc(Cl)cc3)c3ccoc23)ccn1 [Telatinib] | -3.45
O=c1c(-c2ccc(O)cc2)coc2c([C@@H]3O[C@H](CO)[C@@H](O)[C@H](O)[C@H]3O)c(O)ccc12 [Puerarin] | -0.0751
CCn1nc(C(=O)O)c(=O)c2cc3c(cc21)OCO3 [Cinoxacin] | -1.01
Cc1cc([C@@H](C)Nc2ccccc2C(=O)O)c2nc(N3CCOCC3)cc(=O)n2c1 | -11.1
COCCOC(=O)C1=C(C)NC(C)=C(C(=O)OC/C=C/c2ccccc2)C1c1cccc([N+](=O)[O-])c1 (stereo not drawn) [Cilnidipine] | 0.0887 ± 0.53
CCOc1nc2cccc(C(=O)O)c2n1Cc1ccc(-c2ccccc2-c2noc(=O)[nH]2)cc1 [Azilsartan] | 0.00459
O=C(c1cn(Cc2cncn2Cc2ccc(Br)cc2)cc1-c1cccc2ccccc12)N1CCOCC1 | -9.47
CCN1CCN(C(=O)N[C@@H](C(=O)N[C@@H]2C(=O)N3C(C(=O)O)=C(CSc4nnnn4C)CS[C@H]23)c2ccc(O)cc2)C(=O)C1=O [Cefoperazone] | -12
CC(C)(Cc1ccc2ccccc2c1)NC[C@@H](O)COc1cccc(Cl)c1C#N | -11
CN(C)CCOc1ccc(/C(=C(/CCCl)c2ccccc2)c2ccccc2)cc1 [Toremifene Citrate] | -9.22
O=C(NCCO[N+](=O)[O-])c1cccnc1 [Nicorandil] | -1.29
Cc1ccc(Cl)c(Nc2ccccc2C(=O)O)c1Cl [Meclofenamic acid sodium] | 0.116
CC1=Nc2ccc(Cl)cc2S(=O)(=O)N1 [Diazoxide] | 1.43
Cc1cc(Nc2ncnc3ccc(-c4ccc(CNCCS(C)(=O)=O)o4)cc23)ccc1Oc1ccn2ncnc2c1 [HER2-Inhibitor-1] | -8.63

Structure (SMILES) | total cell number
Oc1ccc(OCc2ccccc2)cc1 [Monobenzone] | -5.22
C[C@H]1C[C@H]2[C@@H]3CCC4=CC(=O)C=C[C@]4(C)[C@@]3(F)[C@@H](O)C[C@]2(C)[C@@]1(O)C(=O)CO [Betamethasone] | 4.38 ± 6.5
CCCn1c(=O)c2c(ncn2C)n(CCC)c1=O [1,3-Dipropyl-7-methylxanthine] | -0.342
CNC(=O)[C@H](Cc1c[nH]c2ccccc12)NC(=O)[C@@H](CC(=O)NO)CC(C)C [Ilomastat (GM6001, Galardin)] | -2.79
CN(C)c1ccc(/C=C2/C(=O)Nc3ccccc32)cc1 | -0.0867
Cc1nnc(NS(=O)(=O)c2ccc(N)cc2)s1 [Sulfamethizole] | 0.634
CCN1CCN(c2cc3c(cc2F)c(=O)c(C(=O)O)cn3C2CC2)CC1 [Enrofloxacin] | -0.411
FC(F)c1nc2ccccc2n1-c1nc(N2CCOCC2)nc(N2CCOCC2)n1 | -22.1
COc1cc(NS(C)(=O)=O)ccc1Nc1c2ccccc2nc2ccccc12 [Amsacrine hydrochloride] | -12.2
Nc1nc(=O)c(Br)c(-c2ccccc2)[nH]1 [Bropirimine] | -2.59
COc1ccccc1S(=O)(=O)Nc1ccc2c(c1)CN(C)C(=O)N2 | -15.3
O=C(O)CCCc1ccccc1 [Sodium Phenylbutyrate] | -0.928
CC(C)NCC(O)COc1ccc(CC(N)=O)cc1 (racemic) [(±)-Atenolol] | -1.2
Cc1cnc(NC(=O)C2=C(O)c3ccccc3S(=O)(=O)N2C)s1 [Meloxicam sodium] | -1.34
Cc1cnc(NC(=O)C2=C(O)c3ccccc3S(=O)(=O)N2C)s1 [Meloxicam] | -3.22
N=C(N)SCCc1c[nH]cn1 [Imetit dihydrobromide] | -1.1
CC1(C)O[C@@H]2C[C@H]3[C@@H]4CCC5=CC(=O)C=C[C@]5(C)[C@@]4(F)[C@@H](O)C[C@]3(C)[C@]2(C(=O)CO)O1 [Triamcinolone Acetonide] | 3.31
C[C@@H]1C[C@H]2[C@@H]3CCC4=CC(=O)C=C[C@]4(C)[C@@]3(F)[C@@H](O)C[C@]2(C)[C@@]1(O)C(=O)CO [Dexamethasone (DHAP)] | 6.45
OC1(c2ccc(Cl)c(C(F)(F)F)c2)CCN(CCCC(c2ccc(F)cc2)c2ccc(F)cc2)CC1 [Penfluridol] | -16.2
NCC(O)c1ccc(O)c(O)c1 (racemic) [(±)-Norepinephrine (+)bitartrate] | 0.169
NC(CCCP(=O)(O)O)C(=O)O (racemic) [(±)-2-Amino-5-phosphonopentanoic acid] | 0.12
CCOC(=O)[C@H](CCc1ccccc1)N[C@H]1CCc2ccccc2N(CC(=O)O)C1=O [Benazepril HCl] | 0.414
O=C(Nc1c[nH]nc1-c1nc2ccc(CN3CCOCC3)cc2[nH]1)NC1CC1 | -22.6
Cn1c(=O)c(-c2c(Cl)cccc2Cl)cc2cnc(Nc3ccc(N4CCOCC4)cc3)nc21 | -9.85
